Source: PubChem BioAssay AID1671188 (National Center for Advancing Translational Sciences (NCATS), 2021)
About 250 (0.25%) of roughly 100,000 compounds were called active. This list was built around the results that the source calls inconclusive (neither active nor inactive); the mix of calls is not that of the screen. Calls come from the whole dose curve; as a rule, active = well fitted inhibition curve with a large enough effect; inconclusive = small, poorly fitted or top-dose-only effect; inactive = flat fitted curve, though single readings scatter. Potencies of inconclusive entries are left out as doubtful fits.
% is set by controls: 0 for no effect and ±100 for the full control effect; potency is the fitted concentration of half-maximal effect; tags give direction and shape of the fitted curve.
Note: nearly all actives have a fitted effect of over 60% in size.

The molecules below were run against Alanine aminotransferase 2 (Homo sapiens) (UniProt Q8TD30) (assay: Primary qHTS assay for inhibitors of Glutamate pyruvate transaminase 2 (GPT2)). Details: Recombinant GPT2, coupled pyruvate oxidase/HRP Amplex Red fluorescence; activity change, negative = inhibition: at 57.7 µM (top of the series) unless noted; series mostly up to 57.7 µM.
Chain of UniProt Q8TD30 (Q8TD30 whole entry, looked up): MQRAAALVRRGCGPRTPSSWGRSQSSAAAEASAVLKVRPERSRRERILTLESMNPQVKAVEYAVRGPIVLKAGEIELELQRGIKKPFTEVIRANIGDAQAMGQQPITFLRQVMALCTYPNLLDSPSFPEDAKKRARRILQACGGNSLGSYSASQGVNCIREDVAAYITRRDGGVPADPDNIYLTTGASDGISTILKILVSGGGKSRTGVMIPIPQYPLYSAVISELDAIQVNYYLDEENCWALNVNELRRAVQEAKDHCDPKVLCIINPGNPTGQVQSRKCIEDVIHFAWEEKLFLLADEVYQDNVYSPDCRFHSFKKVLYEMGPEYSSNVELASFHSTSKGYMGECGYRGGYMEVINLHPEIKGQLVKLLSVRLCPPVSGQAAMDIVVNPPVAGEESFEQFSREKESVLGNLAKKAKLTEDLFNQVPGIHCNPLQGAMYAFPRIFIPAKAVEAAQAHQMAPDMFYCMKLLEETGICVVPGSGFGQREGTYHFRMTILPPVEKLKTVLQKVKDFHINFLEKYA
How it was run: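 Inhibition is scored from Amplex Red fluorescence generated when pyruvate oxidase and HRP act on pyruvate released by GPT2. Reactions contain 10ng/uL enzyme, 250uM a-KG and 2mM L-alanine and run 30 min at room temperature.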
For `C=C1C[C@@]2(O)O[C@@]3(C[C@H]2C(C)C)[C@@H](C)CC[C@@H]13`, the Potency was inconclusive [inhibitor, single point]. For `CC(C)[C@@H]1CN(C(=O)c2cc(N3CCCCC3)ccc2Cl)C[C@H]1N(C)C`, the “activity change, negative = inhibition” value was inactive: -20.9%. With `CS(=O)(=O)N1CCCC(C(=O)NC2CCCC2)CCNC(=O)CC1` (stereo unspecified) the “outcome” value was “inactive”. For `O=[N+]([O-])c1cccc(-c2noc([C@@H]3Cc4nc[nH]c4CN3CC3CCCCC3)n2)c1`, the Potency was inconclusive [inhibitor, partial curve, poor fit]. For `O=C1CC(c2ccccc2)N(Cc2ccncc2)CCCN(C(=O)Nc2ccccc2F)CCN1` (stereo unspecified), the Potency was inconclusive [inhibitor, single point]. With `CCn1ccc2sc(C)c(C(=O)N3CCC(Cc4ccccc4)CC3)c2c1=O` the Potency was inconclusive [inhibitor, single point]. `CC1CCN(C(=O)c2ccccc2OCC2CCCN(C(C)C)C2)CC1` (stereo unspecified) was tested, and the “activity change, negative = inhibition” value was inactive: 3.1%. With `COc1ccc(O)cc1CN1CCC2(CCNCC2)C1` the Potency was inconclusive [inhibitor, partial curve, poor fit]. With `C=C1C[C@]23C[C@H]1CC[C@H]2[C@@]12C=C[C@H](O)[C@@](C)(C(=O)O1)[C@H]2[C@@H]3C(=O)O` the Potency was inconclusive [inhibitor, single point]. For `CC[C@H](C)[C@@H](N)C(=O)N1CCC2(CC1)Nc1ccccc1NC2=O`, the Potency was inconclusive [inhibitor, single point]. For `CC1=C[C@@H](CNC(=O)C2CCC2)[C@H](C(C)C)C[C@H]1Cc1nc2ccc(F)cc2[nH]1`, the Potency was inconclusive [inhibitor, single point]. `CCCN(CC1CCOC1)C(=O)NCC(C)C` (stereo unspecified) was tested, and the “outcome” value was “inactive”. With `CSc1ccccc1CN1CCC2(CC1)C(C(=O)O)CC(=O)N2C` (stereo unspecified) the Potency was inconclusive [inhibitor, single point]. With `Cc1ccc(C(=O)NCCOc2nonc2C)cc1N1CCNC1=O` the Potency was inconclusive [inhibitor, single point]. With `CN(C)c1ccc(-c2noc([C@@H]3CCCN3CC3CCCCC3)n2)cn1` the Potency was inconclusive [inhibitor, single point]. In the case of `O=C(O)C1CCCN(CCC=C(c2ccccc2)c2ccccc2)C1` (stereo unspecified), the Potency is reported as inconclusive [inhibitor, full curve, poor fit]. In the case of `CCc1ccc(NC(=O)N2CC3CC(C2)[C@H]2CCCC(=O)N2C3)cc1` (stereo partly specified), the “activity change, negative = inhibition” value is reported as inactive: -0.698%. With `Cc1ccccc1-c1cc(C(=O)NCc2cccnc2)c2c(c1)ncn2C` the Potency was inconclusive [inhibitor, single point]. In the case of `COc1ccc(C2(C(=O)N(C)Cc3ccc(OC(F)(F)F)cc3)CCOCC2)cc1`, the “activity change, negative = inhibition” value is reported as inactive: -6.5%. For `COc1ccc(C(=O)N[C@@H]2CN(Cc3cccc(OC)c3)CCC[C@H]2O)cc1`, the “activity change, negative = inhibition” value was inactive: 4.13% [at 88.5 µM]. With `CN1CCCN(S(=O)(=O)c2ccc(C(F)(F)F)cc2)c2ccccc21` the Potency was inconclusive [inhibitor, single point]. With `Cc1nn(C)c2nc(NCCC(=O)N3CCCC3)sc12` the Potency was inconclusive [inhibitor, full curve, poor fit]. For `CCOc1ccccc1C(=O)NC1CCN(c2cc(-c3ccc(Cl)cc3)[nH]n2)C1` (stereo unspecified), the Potency was inconclusive [inhibitor, single point]. `COc1cccc(CN2CCOc3ccc(C(=O)NCc4ccc(C)cc4)cc3C2)c1` was tested, and the Potency was inconclusive [inhibitor, single point]. `COc1cccc(C(=O)N2CCOc3ccc(CN4CCc5ccccc5C4)cc3C2)c1` was tested, and the “activity change, negative = inhibition” value was inactive: -22.8%. For `Cc1ccccc1Cc1noc(-c2nc(-c3ccc4c(c3)OCO4)no2)n1`, the Potency was inconclusive [inhibitor, partial curve, poor fit]. For `O=C(CSc1ccccn1)NC1CC(=O)N(C2Cc3ccccc3C2)C1` (stereo unspecified), the Potency was inconclusive [inhibitor, single point]. `c1ccc([C@@H]2CNC[C@H]2COCC2CC2)nc1` was tested, and the Potency was inconclusive [inhibitor, partial curve, poor fit]. In the case of `CCC1(O)CCC12CCN(C(=O)c1ccco1)CC2` (stereo unspecified), the Potency is reported as inconclusive [inhibitor, single point]. With `Cc1cn2nc(C(=O)Nc3cccc(F)c3C)cc2c(N(C)Cc2ccccc2)n1` the Potency was inconclusive [inhibitor, partial curve, poor fit]. `COC(=O)CNC(=O)N1CCOc2ccc(CN3CCc4ccccc4C3)cc2C1` was tested, and the “outcome” value was “inactive”. For `CCOC(=O)C1CCN(C(=O)c2ccc3nnc(-c4ccc(OC(F)(F)F)cc4)n3c2)CC1`, the Potency was inconclusive [inhibitor, single point]. In the case of `COCC(=O)N[C@H]1C[C@@H](Cc2cc(-c3ccc(OC)cc3)on2)C1(C)C`, the Potency is reported as inconclusive [inhibitor, single point]. `CC1=C[C@@H](CN2CCN(c3ccccn3)CC2)[C@H](C(C)C)C[C@H]1Cc1nnc(C)o1` was tested, and the “activity change, negative = inhibition” value was inactive: -6.26% [at 88.5 µM]. In the case of `Cc1nnc(-c2cc(C(=O)NCc3ccco3)ccn2)n1Cc1cccnc1`, the Potency is reported as inconclusive [inhibitor, partial curve, poor fit]. `COC[C@@H]1CN(Cc2ccncc2F)C[C@H]1C(=O)NC1CC1` was tested, and the Potency was inconclusive [inhibitor, full curve, poor fit]. For `CN1CC2(CCCN(C3CCN(C(=O)c4cnccn4)CC3)C2)OC1=O` (stereo unspecified), the Potency was inconclusive [inhibitor, partial curve, poor fit]. With `O=C(NCC(F)(F)F)c1nc2cccnc2n(C2CC2)c1=O` the “activity change, negative = inhibition” value was inactive: -14.4% [at 88.5 µM]. For `COc1ccccc1-c1nnc2ccc(C(=O)N3CCOCC3)cn12`, the “activity change, negative = inhibition” value was inactive: -26.9% [at 88.5 µM]. For `CC#C[C@@H](CC(=O)O)c1ccc(OCc2cccc(-c3ccc(C(F)(F)F)cc3)c2)cc1`, the Potency was inconclusive [inhibitor, single point]. With `O=S(=O)(NCC1CN(CC2CC2)CC12CCCCC2)c1cccnc1` (stereo unspecified) the “outcome” value was “inactive”. For `O=C1NCCCN1C1CCN(Cc2ccc(C(F)(F)F)cc2)CC1`, the Potency was inconclusive [inhibitor, single point]. `COC[C@@H]1CN(Cc2cnn(C)c2)C[C@H]1C(=O)N(C)C` was tested, and the Potency was inconclusive [inhibitor, single point]. For `Cc1noc(C)c1-c1cc2c(cc(C)n2C)c(-c2cccc(CO)c2)n1`, the Potency was inconclusive [inhibitor, single point]. `CC(C)c1noc([C@@H]2C[C@H](NC(=O)Nc3ccccc3)CN2C)n1` was tested, and the Potency was inconclusive [inhibitor, single point]. With `O=C(Cc1c[nH]c2ncc(-c3ccccc3)cc12)NCCc1ccccc1` the Potency was inconclusive [inhibitor, full curve, poor fit]. In the case of `COc1ccc(-c2cc(N3CCC(NC(=O)c4cc(OC)c(OC)c(OC)c4)C3)n[nH]2)cc1` (stereo unspecified), the “activity change, negative = inhibition” value is reported as inactive: -20.1%. In the case of `COc1ccc(C(=O)N2CCC(c3noc(COc4ccc(C)cc4)n3)CC2)cn1`, the “activity change, negative = inhibition” value is reported as inactive: -5.03%. For `COc1ccc(-c2cnc3[nH]cc(CC(=O)NC4CCC(O)CC4)c3c2)cc1` (stereo unspecified), the Potency was inconclusive [inhibitor, full curve, poor fit]. For `O=C(NCCC1CCN(C(=O)Nc2cc(F)cc(F)c2)CC1)c1ccc(F)cc1`, the “activity change, negative = inhibition” value was inactive: 1.01%. For `Nc1ccc(O)c([N+](=O)[O-])c1`, the Potency was inconclusive [inhibitor, partial curve, poor fit]. For `O=C1c2cnc(-c3cc4ccccc4o3)nc2OCCN1CC1CC1`, the Potency was inconclusive [inhibitor, full curve, poor fit]. In the case of `CNC(=O)CCn1ncc2cc(OCc3ccccc3-c3cccc(NC(C)=O)c3)ccc21`, the Potency is reported as inconclusive [inhibitor, single point]. With `Cn1cccc1-c1noc(C2CCN(C(=O)CCCc3ccccc3)C2)n1` (stereo unspecified) the Potency was inconclusive [inhibitor, single point]. For `Nc1ccc([N+](=O)[O-])cc1O`, the Potency was inconclusive [inhibitor, full curve]. With `O=C(NCc1ccc2c(c1)OCO2)C1CN(c2ccccc2)C(=O)N1` (stereo unspecified) the Potency was inconclusive [inhibitor, full curve, poor fit]. In the case of `CC1=C(C(=O)O)N2C(=O)[C@@H](NC(=O)[C@H](N)C3=CCC=CC3)[C@H]2SC1`, the Potency is reported as inconclusive [inhibitor, single point]. In the case of `CC1(C)[C@H](Cc2cc(COc3ccccc3)on2)C[C@@H]1NC(=O)COc1ccccc1`, the “activity change, negative = inhibition” value is reported as inactive: -8.81% [at 88.5 µM]. `CNC(=O)N1CCc2c(sc3ncnc(NCCCOC)c23)C1` was tested, and the Potency was inconclusive [inhibitor, partial curve, poor fit]. `O=C(c1ccco1)N1CCN(C(=O)C2CCc3ncc(-c4ccc(F)cc4)n3C2)CC1` (stereo unspecified) was tested, and the Potency was inconclusive [inhibitor, single point]. With `Cc1ccccc1C(=O)NC1CCN(c2cc(-c3ccc(F)cc3)[nH]n2)C1` (stereo unspecified) the Potency was inconclusive [inhibitor, partial curve]. With `O=C1NCCCc2[nH]c(-c3cnn(-c4cccc(F)c4)c3)nc21` the “outcome” value was “inactive”. `Cc1nc(-c2cccc(Cl)c2)n(CC(=O)Nc2ccc(F)cc2)c(=O)c1CCO` was tested, and the “outcome” value was “inactive”. `CCCN1CCc2[nH]cnc2C12CCN(C(=O)CC1C=CS(=O)(=O)C1)CC2` (stereo unspecified) was tested, and the “activity change, negative = inhibition” value was inactive: 0.914%. In the case of `COc1ccc(-c2[nH]nc3ncc(-c4cccc(CO)c4)nc23)c(C)c1`, the Potency is reported as inconclusive [inhibitor, partial curve, poor fit]. For `O=C(c1cccc(OC2CN(CC3CC=CCC3)C2)c1)N1CCCC1` (stereo unspecified), the Potency was inconclusive [inhibitor, single point].
